The source of these data is PubChem BioAssay AID463173 (ICCB-Longwood Screening Facility, Harvard Medical School, 2010).

Screen size: about 52,000 compounds; about 1,700 (3.3%) were called active. Cut-off read from the data, not from the text of the source: active = survival mostly below about 52% (no sharp cut-off); inactive = mostly above about 56%. This is one part of the list.

For the experiment, the system named is Wild type. Kind of experiment: growth inhibition of S. aureus wild type versus tarO mutant, primary screen, teichoic acid synthesis inhibitors, RN4220, OD600 (AID 463173). As to conditions: S. aureus RN4220 wild type/DeltatarO growth, OD600, 18 h, hits give low values, screened at 18.75 µg/mL (by protocol).
Turning to `Cc1cccc(-c2nc3scc(CCNS(=O)(=O)c4ccc(F)c(C(F)(F)F)c4)n3n2)c1`, the survival is inactive: 51%.
In the case of `CCOC(=O)c1ccccc1NC(=O)CN1C(=O)CC(c2ccccc2)Sc2ccccc21` (stereo not given) it was inactive: 91%; in that of `Fc1ccccc1N1CCN(c2ncnc3onc(-c4ccc(Cl)cc4)c23)CC1`, inactive: 77%.
In the case of `COc1ccc(Cl)cc1NC(=O)CSc1nc2c(oc3ccccc32)c(=O)n1Cc1ccco1` it was inactive: 77%; in that of `CCN(CC)c1nn2c(=O)c(C(=O)NCCc3ccccc3C)cnc2s1`, inactive: 127%.
With `O=C(NCc1ccc(Cl)cc1)C1CCC(CNS(=O)(=O)c2ccccc2)CC1` (stereo not given) the figure was inactive: 89%; with `Cc1ccc(NC(=O)/C=C/c2ccco2)cc1F`, inactive: 78%; with `CCOc1ccc(N(C)C(=O)C2CCN(S(=O)(=O)c3c(C)noc3/C=C/c3ccc(C)cc3)CC2)cc1`, inactive: 153%.
Take `CCCCOc1ccc(C(=O)NCCc2sc3nc(-c4ccc(OC)cc4)nn3c2C)cc1`: the survival was inactive: 90%.
In the case of `CCOc1cc2c(cc1OCC)C(CC(=O)O)N(C(=O)Nc1ccc(Br)c(C)c1)CC2` (stereo not given) it was inactive: 81%.
With `O=C(Nc1ccc(N2CCN(c3ccc(F)cc3)CC2)c(C(=O)O)c1)c1cccs1` the figure was inactive: 85%; with `O=C(NCCNC1CCCC1)c1cccs1`, inactive: 116%.
In the case of `COc1ccc(NC(=O)c2ccco2)cc1NC(=O)c1ccc(C#N)cc1F` it was inactive: 144%.
In the case of `Cc1c(C(=O)Nc2ccc(F)c(Cl)c2)sc2nc3n(c(=O)c12)CCC3`, the survival was inactive: 81%.
In the case of `Cc1nc2ccc(C(=O)N3CCN(Cc4ccccc4)CC3)cc2[nH]1` it was inactive: 98%; in that of `COc1ccc(CNC(=O)C2CC(O)CN2C(=O)Nc2ccccc2)cc1` (stereo not given), inactive: 113%.
In the case of `CCCNC(=O)c1cnn(-c2ccc(C)c(C)c2)c1C1CCN(C(=O)OC(C)(C)C)CC1` it was inactive: 73%; in that of `Nc1nc2c3cccc4cccc(c(=O)n2n1)c43`, inactive: 116%.
With `O=C(NCCc1ccccc1)C1CCN(c2nc3ccccc3nc2C(F)(F)F)CC1` the figure was inactive: 75%.
On to `CCCCCSc1nnc2c(n1)[nH]c1c(C)cccc12`, for which the survival was inactive: 78%.
`COc1ccccc1N1CCN(c2ncnc3c2cnn3-c2ccc(C)cc2)CC1`: the survival is inactive: 63%.
In the case of `COCCn1c(SCC(=O)c2ccc(C)cc2)nc2cc(C(=O)NC3CCCC3)ccc2c1=O` it was inactive: 72%; in that of `FC(F)(F)c1cc(Nc2nc3ccccc3c3nncn23)ccc1Cl`, inactive: 95%; in that of `CCc1ccc(/C=C(/C#N)c2nc(-c3ccc(C)cc3)cs2)cc1`, active: -2%.
On to `CCCOc1ccc(C(=O)N2CCC(c3nc4ccccc4s3)CC2)cc1`, for which the survival was inactive: 46%.
